Out of some 350,000 compounds screened, about 31,000 (8.9%) were called active. Inconclusive means that the source gave no clear call. Such entries were picked first, then a sample of the others. The call rests on the fitted dose curve; in most records, active means well fitted inhibition curve with a large enough effect; inconclusive means small, poorly fitted or top-dose-only effect; inactive means no such curve, though single readings can be large or run the other way. Where the call is inconclusive, the potency comes from a doubtful curve fit.
target: Histone-lysine N-methyltransferase EHMT2 (Homo sapiens) (UniProt Q96KQ7); assay: qHTS Assay for Inhibitors of Histone Lysine Methyltransferase G9a; conditions: G9a H3K9 monomethylation, AlphaScreen, 2 h; activity, negative = inhibition: at 59 µM (top of the series) unless noted; further: nearly all actives have a fitted effect of over 75% in size
Sequence of UniProt Q96KQ7 (Q96KQ7 whole entry, looked up): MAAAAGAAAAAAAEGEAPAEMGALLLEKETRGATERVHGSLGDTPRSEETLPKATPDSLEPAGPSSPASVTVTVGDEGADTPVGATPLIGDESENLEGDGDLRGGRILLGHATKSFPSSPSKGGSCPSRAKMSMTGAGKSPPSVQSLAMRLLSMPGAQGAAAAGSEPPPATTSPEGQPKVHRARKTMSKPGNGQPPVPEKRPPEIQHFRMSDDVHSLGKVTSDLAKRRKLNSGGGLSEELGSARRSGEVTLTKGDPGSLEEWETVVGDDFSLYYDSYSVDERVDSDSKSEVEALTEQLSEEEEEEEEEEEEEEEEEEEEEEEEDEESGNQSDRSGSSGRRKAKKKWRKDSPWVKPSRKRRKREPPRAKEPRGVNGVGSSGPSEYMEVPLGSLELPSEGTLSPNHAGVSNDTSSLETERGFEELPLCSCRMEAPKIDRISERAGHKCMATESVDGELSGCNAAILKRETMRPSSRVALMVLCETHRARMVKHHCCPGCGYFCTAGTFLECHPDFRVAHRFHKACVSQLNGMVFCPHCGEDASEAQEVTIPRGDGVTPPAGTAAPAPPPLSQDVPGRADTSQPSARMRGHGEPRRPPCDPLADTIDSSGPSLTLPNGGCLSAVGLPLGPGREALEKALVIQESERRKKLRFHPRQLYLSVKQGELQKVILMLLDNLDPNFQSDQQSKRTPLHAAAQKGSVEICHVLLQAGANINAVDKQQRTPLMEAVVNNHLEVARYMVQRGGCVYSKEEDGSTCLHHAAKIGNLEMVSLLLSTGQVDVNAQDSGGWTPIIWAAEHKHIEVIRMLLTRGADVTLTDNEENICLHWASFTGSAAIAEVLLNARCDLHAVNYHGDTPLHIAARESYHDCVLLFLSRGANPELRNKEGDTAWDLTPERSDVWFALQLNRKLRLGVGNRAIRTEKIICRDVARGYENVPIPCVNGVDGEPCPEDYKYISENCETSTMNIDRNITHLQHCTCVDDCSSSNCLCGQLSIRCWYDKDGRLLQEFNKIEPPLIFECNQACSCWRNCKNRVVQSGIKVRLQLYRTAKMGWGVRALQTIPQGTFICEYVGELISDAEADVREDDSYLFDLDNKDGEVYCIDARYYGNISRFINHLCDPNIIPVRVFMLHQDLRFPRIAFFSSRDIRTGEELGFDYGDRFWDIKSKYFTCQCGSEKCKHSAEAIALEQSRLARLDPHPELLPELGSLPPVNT
Summary of the method: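 Compounds were preincubated with 20 nM G9a for 15 min, after which biotinylated H3K9 peptide (500 nM) and SAM (20 uM) started a 2 h room-temperature reaction. Monomethylated product was quantified by antibody-based AlphaScreen chemiluminescence.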
On the % scale 0 is the no-effect control and ±100 the full control effect; potency means the concentration at half of the fitted maximal effect; tags describe the fitted curve by direction and shape.

Question: `CCCCOc1ccc(C2OC34CCCCC3C(C#N)(C#N)C2(C#N)C(=N)O4)cc1` (stereo not drawn) was tested. Which Potency did it give?
Answer: inconclusive: 28.2 µM [inhibitor, single point]

Question: With `CCCCSCCCNC(=O)CN1C(=O)COc2ccc(S(=O)(=O)N3CCC(C)CC3)cc21` as the molecule, how does the Potency read?
Answer: inconclusive: 28.2 µM [inhibitor, single point]

Question: With `CC(C)CC(NC(=O)C(CC(C)C)NC(=O)OC(C)(C)C)C(=O)O` (stereo not drawn) as the molecule, how does the Potency read?
Answer: inconclusive: 20 µM [inhibitor, partial curve, poor fit]

Question: How did the Potency turn out when `Cc1ccc(Cl)cc1NC(=O)COCc1cc(-c2ccco2)on1` was run?
Answer: inconclusive: 11.2 µM [inhibitor, partial curve]

Question: Which Potency does the source give for `COc1cc(OC)c(C2C(C(=O)O)c3ccccc3C(=O)N2C)cc1OC` (stereo not drawn) here?
Answer: inconclusive: 89.1 µM [inhibitor, single point]

Question: For `COc1ccccc1N1CCN(C(=O)c2cc(C3CC3)on2)CC1`, which Potency is on record?
Answer: inconclusive: 31.6 µM [inhibitor, single point]

Question: For `O=C1CCC/C(=N\NC(=O)COc2ccc(Cl)cc2)C1`, which Potency is on record?
Answer: inconclusive: 50.1 µM [inhibitor, partial curve]

Question: How did the “activity, negative = inhibition” value turn out when `CCC(C)[C@H](NC(=O)Nc1cccc(Br)c1)C(=O)OC` (stereo partly drawn) was run?
Answer: inactive: 20.2%

Question: For `CCOc1cc(C2C(C#N)=C(N)OC3=C2C(=O)CC(C)(C)C3)cc([N+](=O)[O-])c1O` (stereo not drawn), which Potency is on record?
Answer: inconclusive: 79.4 µM [inhibitor, single point]

Question: For `Cc1ccc(Nc2nc(N)nc(CN3CCN(C)CC3)n2)cc1C`, which Potency is on record?
Answer: inconclusive: 100 µM [inhibitor, single point]

Question: `O=C(O)c1ccc(S(=O)(=O)N2CCCCCC2)cc1` was tested. Which Potency did it give?
Answer: inconclusive: 100 µM [inhibitor, single point]

Question: For `CN1CCN(Cc2cc(=O)oc3ccc(Cl)cc23)CC1`, which Potency is on record?
Answer: inconclusive: 70.8 µM [inhibitor, partial curve]

Question: How did the “activity, negative = inhibition” value turn out when `COc1ccc(-c2[nH]c3c(c2-c2c(-n4cccc4)n(C)c(=O)n(C)c2=O)c(=O)n(C)c(=O)n3C)cc1` was run?
Answer: inactive: 2.53%

Question: Which Potency does the source give for `Cc1cccc(C(=O)OCC(=O)Nc2nnc(-c3ccccc3)o2)c1O` here?
Answer: inconclusive: 89.1 µM [inhibitor, partial curve, poor fit]

Question: For `Cc1ccc(N(C(=O)CNC(=O)c2ccco2)C(C(=O)NC2CCCCC2)c2cccnc2)cc1` (stereo not drawn), which “activity, negative = inhibition” value is on record?
Answer: inactive: 16.2%

Question: Which Potency does the source give for `Cc1ccnc(N2C(=O)c3cccc4c([N+](=O)[O-])ccc(c34)C2=O)c1` here?
Answer: inconclusive: 39.8 µM [inhibitor, single point]

Question: Which “activity, negative = inhibition” value does the source give for `O=C(CNC(=O)c1ccc(Cl)cc1)OCc1cc(=O)n2ccsc2n1` here?
Answer: inactive: 5.99%

Question: `CCN(CC)S(=O)(=O)c1ccc2c(c1)N(CC(=O)N(C)Cc1ccccc1)C(=O)CO2` was tested. Which “activity, negative = inhibition” value did it give?
Answer: inactive: 1.42%

Question: `COc1cccc(/C=C/C(=O)c2ccc(NC3=NCCCS3)cc2)c1` was tested. Which Potency did it give?
Answer: active: 44.7 µM

Question: Which activity, negative = inhibition does the source give for `Cc1[nH]c2ccccc2c1C(=O)CNc1nccs1` here?
Answer: inconclusive: -75.2% [inhibitor]

Question: Which Potency does the source give for `CSC1=NCCN1C(=O)c1cccs1` here?
Answer: inconclusive: 89.1 µM [inhibitor, single point]

Question: Which Potency does the source give for `Cc1ccc(NC(=O)Cn2c(CCC(=O)O)ccc2-c2ccc(Cl)cc2)cc1` here?
Answer: inconclusive: 39.8 µM [inhibitor, partial curve, poor fit]

Question: What about the activity, negative = inhibition of the same molecule?
Answer: inactive: -39.4% [at 2.33 µM]

Question: With `CCOc1ccccc1N1C(=O)CC(Sc2n[nH]c(-c3ccccc3)n2)C1=O` (stereo not drawn) as the molecule, how does the Potency read?
Answer: active: 1.58 µM

Question: With `COc1ccc(CN(CCC(c2ccccc2)c2ccc(OC(C)C)cc2)C(=O)CCl)cc1OC` (stereo not drawn) as the molecule, how does the Potency read?
Answer: inconclusive: 31.6 µM [inhibitor, single point]

Question: How did the Potency turn out when `c1coc(-c2ncc[nH]2)c1` was run?
Answer: inconclusive: 79.4 µM [inhibitor, single point]

Question: For `Cc1ccc(CN2CCNC(=O)C2CC(=O)N(C)Cc2cnccn2)cc1` (stereo not drawn), which Potency is on record?
Answer: inconclusive: 79.4 µM [inhibitor, single point]

Question: Which “activity, negative = inhibition” value does the source give for `Cc1nc(NC(=O)c2cccc(Cl)c2)sc1C(=O)N1CCCCC1` here?
Answer: inactive: 50.7% [at 102 µM]

Question: How did the activity, negative = inhibition turn out when `CCOC(=O)c1ccc(NC(=O)CC2SC(=NC)N(C)C2=O)cc1` (stereo not drawn) was run?
Answer: inactive: -27.9% [at 12.7 µM]

Question: For `CCOc1ccc(NC(=O)CCN2CCN(C)CC2)cc1`, which “activity, negative = inhibition” value is on record?
Answer: inactive: -2.41% [at 102 µM]

Question: With `COc1ccc(O)c(C2Nc3ccccc3-n3c(-c4ccccc4)c4c(=O)n(C)c(=O)n(C)c4c32)c1` (stereo not drawn) as the molecule, how does the Potency read?
Answer: inconclusive: 31.6 µM [inhibitor, partial curve, poor fit]

Question: For `Cc1ccc(S(=O)(=O)CCC(=O)OCC(=O)NCCc2ccccc2)cc1`, which Potency is on record?
Answer: inconclusive: 56.2 µM [inhibitor, partial curve, poor fit]

Question: With `CCN1/C(=C2\C(=O)N(C)C(=S)N2C)C=Cc2cc(C)ccc21` as the molecule, how does the Potency read?
Answer: active: 10 µM

Question: Which Potency does the source give for `CCCn1c(CNC(=O)Cc2ccccc2)nc2ccccc21` here?
Answer: inconclusive: 28.2 µM [inhibitor, single point]

Question: With `CCn1c(=O)cc(OCC(=O)NCc2ccccc2Cl)c2ccccc21` as the molecule, how does the Potency read?
Answer: inconclusive: 25.1 µM [inhibitor, partial curve, poor fit]

Question: `CCCN(CC(=O)NC(=O)NC1CCCCC1)CC(=O)Nc1cc(Cl)ccc1Cl` was tested. Which Potency did it give?
Answer: inconclusive: 3.16 µM [inhibitor, single point]

Question: `CN(C)c1ncc2nc(CCc3ccccc3)c(=O)n(Cc3cccs3)c2n1` was tested. Which activity, negative = inhibition did it give?
Answer: inactive: 8.57% [at 0.501 µM]

Question: How did the “activity, negative = inhibition” value turn out when `COCCCN1C(=O)C2C(C(=O)Nc3cccc(Cl)c3)C3C=CC2(O3)C1C(=O)NC1CCCCC1` (stereo not drawn) was run?
Answer: inactive: 9.76% [at 102 µM]

Question: With `CN(CC(=O)Nc1ccccc1Cl)C(=O)c1ccccc1Sc1ccccc1C#N` as the molecule, how does the Potency read?
Answer: inconclusive: 89.1 µM [inhibitor, single point]

Question: Which Potency does the source give for `COc1ccc(/C=C/C(=O)NCc2cn(C)nc2C)cc1COc1ccc(Br)cc1` here?
Answer: inconclusive: 89.1 µM [inhibitor, single point]

Question: For `COc1ccc(CNC(=O)CCN2C(=S)NC(C)(C)CC2C)cc1` (stereo not drawn), which Potency is on record?
Answer: inconclusive: 79.4 µM [inhibitor, single point]

Question: How did the “activity, negative = inhibition” value turn out when `CN(C)c1ccc(/C=N\S(=O)(=O)c2ccccc2)cc1` was run?
Answer: inactive: -28.2%

Question: Which Potency does the source give for `CCc1ccc2nc(N(CCCN(C)C)C(=O)c3ccc(S(=O)(=O)N(C)C4CCCCC4)cc3)sc2c1` here?
Answer: inconclusive: 89.1 µM [inhibitor, single point]

Question: For `CN(C)/C=N/C(=S)Nc1ccccc1`, which Potency is on record?
Answer: inconclusive: 25.1 µM [inhibitor, partial curve, poor fit]

Question: `O=C(NCc1ccco1)c1nn2cccnc2c1Cl` was tested. Which “activity, negative = inhibition” value did it give?
Answer: inactive: -46.5% [at 102 µM]

Question: How did the activity, negative = inhibition turn out when `C#CCOCCOCCOCCNc1nc(N2CCN(C(=O)CCCCCCCCCCNC(=O)[C@H](CCCCN)n3cc(C[C@@H](C)CC)nn3)CC2)nc(N2CCN(C(=O)CCCCCCCCCCNC(=O)[C@H](CCCN=C(N)N)n3cc(C[C@@H](C)CC)nn3)CC2)n1` was run?
Answer: inactive: -38% [at 2.33 µM]

Question: `Cc1cccc(-c2nnc3sc(-c4ccccc4C)nn23)c1` was tested. Which “activity, negative = inhibition” value did it give?
Answer: inactive: 16% [at 102 µM]

Question: How did the Potency turn out when `N#Cc1c(SCC(=O)Nc2ccc(Cl)cc2Cl)sc2c(O)cc(=O)[nH]c12` was run?
Answer: inconclusive: 89.1 µM [inhibitor, single point]

Question: `O=C(CSC1=NS(=O)(=O)c2cc(Cl)ccc2N1)NCc1ccccc1` was tested. Which “activity, negative = inhibition” value did it give?
Answer: inactive: -8.72% [at 102 µM]

Question: How did the Potency turn out when `NC(=O)c1sc2nc3c(c(-c4cccs4)c2c1N)CCCCC3` was run?
Answer: inconclusive: 89.1 µM [inhibitor, partial curve, poor fit]

Question: How did the Potency turn out when `Cc1cc(C)cc(NC(=O)Cn2cc3c(n2)CCCCC3)c1` was run?
Answer: inconclusive: 6.31 µM [inhibitor, full curve, poor fit]

Question: With `O=C(O)C[CH2][Ge](=[O])[O][Ge](=[O])[CH2]CC(=O)O` as the molecule, how does the “activity, negative = inhibition” value read?
Answer: inactive: 38%

Question: `CCN(CC)CCN1C(=O)C(=O)/C(=C(/O)c2ccc(OC)c(OC)c2)C1c1ccccn1` (stereo not drawn) was tested. Which Potency did it give?
Answer: inconclusive: 0.631 µM [inhibitor, partial curve, poor fit]

Question: How did the “activity, negative = inhibition” value turn out when `C=C1CCN([C@H](C(=O)NCc2ccco2)C(C)C)S(=O)(=O)c2ccccc21` was run?
Answer: inactive: 19.7%

Question: For `COc1ccc(S(=O)(=O)NCc2ccccn2)cc1OC`, which activity, negative = inhibition is on record?
Answer: inactive: -46.8% [at 12.7 µM]

Question: Which “activity, negative = inhibition” value does the source give for `Cc1cccc(NC(=O)c2ccc3nsnc3c2)c1C` here?
Answer: inactive: 2.23% [at 102 µM]

Question: `CC1CCN(CCC(=O)Nc2ccc3c(c2)OCCO3)CC1` was tested. Which “activity, negative = inhibition” value did it give?
Answer: inactive: -46.6% [at 102 µM]

Question: How did the “activity, negative = inhibition” value turn out when `CC(=O)Nc1ccc(C(=O)OCCCOC(=O)c2ccc(NC(C)=O)cc2)cc1` was run?
Answer: inactive: 59.4% [at 102 µM]

Question: Which activity, negative = inhibition does the source give for `O=C(c1ccc2c(=O)n(-c3ccccc3)c(=S)[nH]c2c1)N1CCCCC1` here?
Answer: inconclusive: -88.6% [inhibitor] [at 12.7 µM]

Question: `CCCCn1c(N)c(N(CC(C)C)C(=O)c2ccc(N3C(=O)c4ccccc4C3=O)cc2)c(=O)[nH]c1=O` was tested. Which Potency did it give?
Answer: inconclusive: 50.1 µM [inhibitor, partial curve]

Question: For `CC(=O)NC(NC(=S)Nc1ccc(C)cc1C)C(Cl)(Cl)Cl` (stereo not drawn), which Potency is on record?
Answer: active: 44.7 µM

Question: `Cc1ccc(OCC(=O)Nc2ccc(N3CCCC3)cc2)cc1C` was tested. Which Potency did it give?
Answer: active: 11.2 µM

Question: How did the Potency turn out when `Cc1ccc(C(=O)N2CCN(S(=O)(=O)c3cc(Br)ccc3Br)CC2)o1` was run?
Answer: inconclusive: 70.8 µM [inhibitor, single point]

Question: `CN(C(=O)CSc1nnc(-c2cccs2)n1C1CC1)C1CCS(=O)(=O)C1` (stereo not drawn) was tested. Which Potency did it give?
Answer: inconclusive: 50.1 µM [inhibitor, partial curve]

Question: Which Potency does the source give for `CN1CCN(C(=O)c2cnn3c(C(F)F)cc(C4CC4)nc23)CC1` here?
Answer: inconclusive: 70.8 µM [inhibitor, single point]

Question: How did the Potency turn out when `COCc1ccc(CN2CCCC(C(=O)Nc3ccc(-c4cccc(OC)c4)cc3)C2)o1` (stereo not drawn) was run?
Answer: inconclusive: 79.4 µM [inhibitor, single point]

Question: How did the Potency turn out when `Cc1cc(C)c2nc(N(CCCN(C)C)C(=O)c3ccc(S(=O)(=O)N4CC(C)OC(C)C4)cc3)sc2c1` (stereo not drawn) was run?
Answer: inconclusive: 79.4 µM [inhibitor, single point]

Question: With `COc1ccc(S(=O)(=O)N2CCC3(CC2)OCCN3S(=O)(=O)c2ccccc2)cc1OC` as the molecule, how does the Potency read?
Answer: inconclusive: 11.2 µM [inhibitor, partial curve, poor fit]

Reference: PubChem BioAssay AID504332 (National Center for Advancing Translational Sciences (NCATS), 2011)
